# Several values for one entry are separate records, joined by “and”; a condition that tells them apart may be missing. Identical values can stand only once. Inconclusive means that the source gave no clear call. Such entries were picked first, then a sample of the others. For part of these data: Where the call is inconclusive, the potency comes from a doubtful curve fit. Activity calls are given as the source filed them. Unless noted, calls follow the shape of the dose curve; as a rule, active = well fitted curve in the direction sought with a large enough effect; inconclusive = small, poorly fitted or top-dose-only effect, or another doubt; inactive = no such curve, though single readings can be large; an effect the other way counts as inactive or inconclusive.
# How the values were obtained:
# [1] = qHTS to identify inhibitors of the type 1 interferon - major histocompatibility complex class I in skeletal muscle: primary screen against the NCATS Mechanism Interrogation Plate v5.0 (MIPE) Libary (AID 1347411); conditions: iHSKM cells + IFN-b, HiBiT-tagged MHC-I luminescence, 24 h; activity change, negative = inhibition: at 45.8 µM (top of the series); also: nearly all actives have a fitted effect of over 65% in size; also: potency is read from the fitted curve at half-maximal effect;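 as to activity change, negative = inhibition: plate controls were vehicle for no effect and reference inhibitor for full effect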
# In short: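 Seed engineered human myoblasts (HLA-B HiBit) in medium without dexamethasone containing 4 ng/ml IFN-beta; after 1 hr add compound titrations (top 46 uM final). Incubate 24 hrs at 37 C, lyse 10 min with HiBiT reagent, read luminescence.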
# [2] = Primary qHTS for inhibitors of nuclear receptor binding SET domain protein 2 (NSD2) in an isogenic RCH-ACV NSD2 p.E1099K mutant (9B) (AID 1645876); also: nearly all actives have a fitted effect of over 70% in size; also: potency is read from the fitted curve at half-maximal effect
# [3] = Primary qHTS for inhibitors of nuclear receptor binding SET domain protein 2 (NSD2) in an RCH-ACV wild type WT cells (2C) (AID 1645877); also: nearly all actives have a fitted effect of over 70% in size; also: potency is read from the fitted curve at half-maximal effect
# [4] = target: Phospholipid hydroperoxide glutathione peroxidase GPX4 (Homo sapiens) (UniProt P36969); assay: Primary qHTS Assay for Inhibitors of Recombinant Selenoprotein Glutathione Peroxidase 4 (GPX4) (AID 1845192); also: nearly all actives have a fitted effect of over 65% in size; also: potency is read from the fitted curve at half-maximal effect; as to activity change, negative = inhibition: % is scaled to controls: 0 for no effect and ±100 for the full control effect
# UniProt P36969, sequence (P36969 whole entry, looked up): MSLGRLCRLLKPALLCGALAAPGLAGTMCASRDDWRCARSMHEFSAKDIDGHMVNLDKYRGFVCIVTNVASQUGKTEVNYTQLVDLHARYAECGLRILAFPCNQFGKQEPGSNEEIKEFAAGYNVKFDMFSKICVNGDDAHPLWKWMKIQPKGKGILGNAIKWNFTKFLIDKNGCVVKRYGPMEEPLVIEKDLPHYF
# In short: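 NADPH consumption followed by fluorescence at 340/450 nm, t=0 and after 15 min at room temperature. Reaction started with cumene hydroperoxide (0.5 mM final) after 30 min compound–GPX4 preincubation; final 200 nM GPX4, 100 nM GR, 1 mM GSH, 0.5 mM NADPH.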
# [5] = target: Glutathione peroxidase 1 (Homo sapiens) (UniProt P07203); assay: Primary qHTS Assay for Inhibitors of Recombinant Selenoprotein Glutathione Peroxidase 1 (GPX1) (AID 1845191); also: nearly all actives have a fitted effect of over 65% in size; also: potency is read from the fitted curve at half-maximal effect
# UniProt P07203, sequence (P07203 whole entry, looked up): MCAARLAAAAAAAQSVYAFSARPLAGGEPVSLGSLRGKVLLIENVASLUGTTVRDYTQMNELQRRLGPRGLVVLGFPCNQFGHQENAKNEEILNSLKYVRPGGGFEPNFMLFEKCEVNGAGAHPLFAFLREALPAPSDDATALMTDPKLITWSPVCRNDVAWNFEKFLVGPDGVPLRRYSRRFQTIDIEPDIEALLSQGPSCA
# In short: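 NADPH consumption tracked by fluorescence at 340/450 nm between t=0 and t=15 min, room temperature. Final mix: 10 nM GPX1, 100 nM glutathione reductase, 1 mM GSH, 0.5 mM NADPH, 0.5 mM cumene hydroperoxide, 0.01% BSA; 30 min compound–enzyme preincubation.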
# [6] = NCATS anti-infectives library activity on the primary C. elegans qHTS viability assay (AID 1745855; calls by dose curve)
# In short: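 GFP read-out by 488 nm laser cytometry at day 0, 3 and 7, gated on object perimeter, area and peak intensity, scored viability of PE254-GFP-FLuc worms exposed to compound in S medium with bacterial capsules at 21 °C.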
# Tags tell the direction and shape of the fitted curve.
smiles,measurement,setting,value
NC1CCCN(c2c(/C=C3\SC(=O)NC3=O)cccc2-c2ccccc2)C1 (configuration not stated),Potency,[1],"inconclusive: 46.6 µM [inhibitor, single point]"
same,Potency,[2],"inconclusive: 23.1 µM [inhibitor, partial curve] and inconclusive: 18.6 µM [inhibitor, partial curve]"
same,Potency,[3],"inconclusive: 18.4 µM [inhibitor, single point] and inconclusive: 13.2 µM [inhibitor, partial curve]"
same,Potency,[4],"inconclusive: 22.7 µM [inhibitor, single point]"
CCC(=O)OCC(=O)C1(OC(=O)CC)C(C)CC2C3CCC4=CC(=O)C=CC4(C)C3(F)C(O)CC21C (configuration not stated),Potency,[1],inactive
same,Potency,[2],"inconclusive: 8.33 µM [inhibitor, full curve, poor fit]"
same,Potency,[3],"inconclusive: 0.0468 µM [inhibitor, full curve, poor fit]"
Cc1c[nH]c(/C=C2\C(=O)Nc3ccccc32)c1CCC(=O)O,Potency,[1],"inconclusive: 16.5 µM [inhibitor, partial curve]"
same,Potency,[2],"inconclusive: 29.1 µM [inhibitor, single point]"
same,Potency,[3],"inconclusive: 29.1 µM [inhibitor, single point]"
CCC[C@H](NC(=O)[C@@H]1[C@H]2CCC[C@H]2CN1C(=O)[C@@H](NC(=O)[C@@H](NC(=O)c1cnccn1)C1CCCCC1)C(C)(C)C)C(=O)C(=O)NC1CC1,Potency,[1],"inconclusive: 13.1 µM [inhibitor, partial curve, poor fit]"
same,Potency,[2],"inconclusive: 4.68 µM [inhibitor, partial curve]"
same,Potency,[3],active: 5.9 µM
same,Potency,[4],"inconclusive: 18 µM [inhibitor, single point]"
N#Cc1ccc(Cn2cncc2CN2CCN(c3cccc(Cl)c3)C(=O)C2)cc1,Potency,[1],"inconclusive: 16.5 µM [inhibitor, single point]"
same,Potency,[2],active: 4.68 µM
CC(C)n1cc(-c2ccc3c(c2)N(C)CC3)c2c(NS(=O)(=O)c3ccn(C)n3)ccnc21,Potency,[1],inactive
same,Potency,[2],inactive
same,Potency,[3],inactive
same,Potency,[4],"inconclusive: 18 µM [inhibitor, single point]"
C=CC(=O)N1C[C@H](Nc2ncnc3[nH]ccc23)CC[C@@H]1C,Potency,[1],inactive
same,Potency,[2],"inconclusive: 10.5 µM [inhibitor, partial curve]"
same,Potency,[3],inactive
O=C1OC(COc2ccccc2[N+](=O)[O-])CC1Cc1ccccc1 (configuration not stated),Potency,[1],inactive
same,Potency,[2],inactive
COc1ccc(S(=O)(=O)NCc2ccc(C(=O)NCCc3ccc(Cl)cn3)cc2)cc1,Potency,[1],inactive
same,Potency,[2],"inconclusive: 33.2 µM [inhibitor, single point]"
same,Potency,[3],"inconclusive: 23.5 µM [inhibitor, single point]"
CNC(=O)Cn1cc(-c2ccc3c(c2)C(F)CC32NC(=O)N(CC(=O)N(Cc3ccc(F)cc3)[C@@H](C)C(F)(F)F)C2=O)cn1 (some centres not stated),Potency,[1],inactive
same,Potency,[2],"inconclusive: 20.9 µM [inhibitor, single point]"
same,Potency,[3],"inconclusive: 20.9 µM [inhibitor, single point]"
same,Potency,[5],inactive
CC(C)(O)CNc1ncc(-c2ccnc(Nc3ccncc3)n2)c(CC2CC2)n1,Potency,[1],active: 16.5 µM
same,Potency,[2],active: 4.17 µM
C=C1C(=O)OC2/C=C(/C)CC/C=C(/C)CCC12 (configuration not stated),Potency,[1],"inconclusive: 26.2 µM [inhibitor, partial curve]"
same,Potency,[2],active: 11.8 µM
Cc1cc(C)c2c(c1)[C@@H](N(Cc1cc(C(F)(F)F)cc(C(F)(F)F)c1)c1nnn(C)n1)CCCN2CC1CCC(C(=O)O)CC1 (some centres not stated),Potency,[1],inactive
same,Potency,[3],"inconclusive: 16.6 µM [inhibitor, partial curve, poor fit]"
same,Potency,[4],"inconclusive: 14.3 µM [inhibitor, partial curve]"
C=CC(=O)N[C@H]1CN(c2nc(Nc3cn(C)nc3OC)c3ncn(C)c3n2)C[C@@H]1F,"activity change, negative = inhibition",[1],inconclusive: -40.7% [inhibitor]
same,Potency,[3],active: 20.9 µM
CCCN(CCC)C(=O)C1=Cc2ccc(-c3ccc(C(=O)N4CCCC4)cc3)cc2N=C(N)C1,Potency,[1],inactive
same,Potency,[2],"inconclusive: 23.5 µM [inhibitor, single point]"
same,Potency,[4],"inconclusive: 22.7 µM [inhibitor, single point]"
COc1ccc(Cl)cc1-c1cc(=O)[nH]c(=S)n1CC(N)=O,Potency,[1],inactive
same,Potency,[3],inactive
same,Potency,[4],inactive
CCOC(=O)C1=CCCCC1S(=O)(=O)Nc1ccc(F)cc1Cl (configuration not stated),Potency,[1],"inconclusive: 16.5 µM [inhibitor, partial curve]"
same,Potency,[4],"inconclusive: 12.8 µM [inhibitor, partial curve]"
Cn1cc(C2=C(c3cn(C)c4cc([N+](=O)[O-])ccc34)C(=O)NC2=O)c2ccccc21,Potency,[1],"inconclusive: 13.1 µM [inhibitor, partial curve]"
same,Potency,[3],active: 0.417 µM
same,Potency,[5],"inconclusive: 7.28 µM [inhibitor, partial curve]"
same,Potency,[4],"inconclusive: 25.5 µM [inhibitor, single point]"
NC(=O)c1cc(F)cc2c1C(=O)N(C1CCN(C3CCC(F)(F)CC3)CC1)C2,Potency,[1],"inconclusive: 16.5 µM [inhibitor, partial curve, poor fit]"
same,Potency,[3],"inconclusive: 16.6 µM [inhibitor, partial curve]"
O=C(O)c1ccc(O)c2ncccc12,Potency,[1],inactive
same,Potency,[3],"inconclusive: 29.5 µM [inhibitor, single point]"
C[C@H]1C[C@@H](n2c(Nc3ccc(OC(F)(F)F)cc3)nc3cc(CCC(=O)O)ccc32)CC(C)(C)C1,Potency,[1],"inconclusive: 29.4 µM [inhibitor, partial curve, poor fit]"
same,Potency,[3],"inconclusive: 11.8 µM [inhibitor, partial curve, poor fit]"
same,Potency,[4],active: 2.55 µM
CC(C)(O)c1coc(S(=O)(=O)NC(=O)Nc2c3c(cc4c2CCC4)CCC3)c1,Potency,[1],inactive
same,Potency,[4],"inconclusive: 25.5 µM [inhibitor, partial curve, poor fit]"
c1ccc2c(-c3cnn4cc(-c5ccc(OCCN6CCOCC6)cc5)cnc34)ccnc2c1,Potency,[1],"inconclusive: 14.3 µM [inhibitor, partial curve, poor fit]"
same,Potency,[3],active: 3.23 µM
COc1ccc2c(c1)CC[C@@H]1[C@@H]2CC[C@]2(C)[C@@H](NCCCCCCN3C(=O)C=CC3=O)CC[C@@H]12,Potency,[1],inactive
same,Potency,[3],active: 5.25 µM
O=C(O)CNC(=O)c1ncc(-c2cccc(Cl)c2)cc1O,Potency,[1],"inconclusive: 16.5 µM [inhibitor, partial curve, poor fit]"
same,Potency,[2],"inconclusive: 37.2 µM [inhibitor, single point]"
same,Potency,[4],"inconclusive: 20.2 µM [inhibitor, partial curve]"
CC/C(=C(/c1ccc(/C=C/C(=O)O)cc1)c1ccc2[nH]ncc2c1)c1ccc(F)cc1Cl,Potency,[1],"inconclusive: 52.3 µM [inhibitor, single point]"
same,Potency,[2],"inconclusive: 26.3 µM [inhibitor, single point]"
same,Potency,[4],active: 4.04 µM
Cc1cc(-n2c(=O)ccc3cnc4[nH]ccc4c32)ccc1F,Potency,[1],active: 4.15 µM
same,Potency,[3],"inconclusive: 14.8 µM [inhibitor, partial curve]"
CC1(C)C(N(O)C(=O)Nc2ccc(Cl)cc2)N(c2ccc(Cl)cc2)C(=O)N1CC(=O)N/N=C/C=C/c1ccc([N+](=O)[O-])o1 (configuration not stated),Potency,[1],active: 14.7 µM
same,Potency,[2],active: 7.42 µM
same,Potency,[4],active: 14.3 µM
CONC(=O)Nc1ccc(-c2sc3c(c2CN(C)Cc2ccccc2)c(=O)n(-c2ccccc2)c(=O)n3Cc2c(F)cccc2F)cc1,Potency,[1],inactive
same,Potency,[3],inactive
same,Potency,[5],inactive
CC(C)(C)C[C@H]1N[C@@H](C(=O)NC2CCC(O)CC2)[C@H](c2cccc(Cl)c2F)[C@@]12C(=O)Nc1cc(Cl)ccc12 (some centres not stated),Potency,[1],"inconclusive: 29.4 µM [inhibitor, partial curve, poor fit]"
same,Potency,[3],active: 0.468 µM
CCN(C)S(=O)(=O)Nc1ccc(F)c(C(=O)c2c[nH]c3ncc(-c4cnc(C5CC5)nc4)cc23)c1F,Potency,[1],"inconclusive: 18.6 µM [inhibitor, partial curve]"
same,Potency,[2],active: 8.33 µM
same,Potency,[4],"inconclusive: 11.4 µM [inhibitor, partial curve, poor fit]"
CC1=C(c2ccc(O)cc2)[C@H](c2ccc(OCCN3CCCCC3)cc2)Oc2cc(O)ccc21,"activity change, negative = inhibition",[1],inconclusive: -40.8% [inhibitor]
same,Potency,[3],"inconclusive: 11.8 µM [inhibitor, single point]"
CCCCCCCOc1ccc(CCC(N)(CO)CO)cc1C(F)(F)F,Potency,[1],"inconclusive: 41.5 µM [inhibitor, single point]"
same,Potency,[5],"inconclusive: 29 µM [inhibitor, partial curve, poor fit]"
Cc1cc(Nc2cc(N)ncn2)c(=O)n2c1C(=O)NC21CCCCC1,Potency,[1],inactive
same,Potency,[3],"inconclusive: 8.11 µM [inhibitor, partial curve]"
same,Potency,[4],inactive
Cc1nnn(C)c1-c1cnc2c3ccc(C(C)(C)O)cc3n([C@H](c3ccccc3)C3CCOCC3)c2c1,Potency,[1],inactive
same,Potency,[5],active: 18.3 µM
same,Potency,[4],active: 16.1 µM
Cc1ccc(C(=O)OCc2ccc([C@@H](CN)C(=O)Nc3ccc4cnccc4c3)cc2)c(C)c1,Potency,[1],"inconclusive: 22.7 µM [inhibitor, single point]"
same,Potency,[5],"inconclusive: 6.24 µM [inhibitor, partial curve, poor fit]"
Nc1ccc(F)cc1NC(=O)c1ccc(CNC(=O)/C=C/c2cccnc2)cc1,Potency,[1],"inconclusive: 7.39 µM [inhibitor, partial curve]"
same,Potency,[6],inactive
Cc1ccc(-c2nc(N)nc3c2nnn3Cc2cccc(CO[C@H]3CCOC3)n2)o1,Potency,[1],inactive
same,Potency,[2],inactive
same,Potency,[4],"inconclusive: 18 µM [inhibitor, single point]"
